Whole data set: some 33,000 sequences, median “E-score (-0.5 to 0.5)” near -0.021, cut for the highest 2% near 0.32. Some of the results follow.
target: T1, Zap1 (UniProt P47043); assay: PBM E-score (8-mer binding enrichment) (E-score (-0.5 to 0.5)); higher = stronger / more preferred TF binding; most listed sequences are background and not binding sites; conditions: protein concentration: 200 nM; construct: GST-full length
T1 sequence: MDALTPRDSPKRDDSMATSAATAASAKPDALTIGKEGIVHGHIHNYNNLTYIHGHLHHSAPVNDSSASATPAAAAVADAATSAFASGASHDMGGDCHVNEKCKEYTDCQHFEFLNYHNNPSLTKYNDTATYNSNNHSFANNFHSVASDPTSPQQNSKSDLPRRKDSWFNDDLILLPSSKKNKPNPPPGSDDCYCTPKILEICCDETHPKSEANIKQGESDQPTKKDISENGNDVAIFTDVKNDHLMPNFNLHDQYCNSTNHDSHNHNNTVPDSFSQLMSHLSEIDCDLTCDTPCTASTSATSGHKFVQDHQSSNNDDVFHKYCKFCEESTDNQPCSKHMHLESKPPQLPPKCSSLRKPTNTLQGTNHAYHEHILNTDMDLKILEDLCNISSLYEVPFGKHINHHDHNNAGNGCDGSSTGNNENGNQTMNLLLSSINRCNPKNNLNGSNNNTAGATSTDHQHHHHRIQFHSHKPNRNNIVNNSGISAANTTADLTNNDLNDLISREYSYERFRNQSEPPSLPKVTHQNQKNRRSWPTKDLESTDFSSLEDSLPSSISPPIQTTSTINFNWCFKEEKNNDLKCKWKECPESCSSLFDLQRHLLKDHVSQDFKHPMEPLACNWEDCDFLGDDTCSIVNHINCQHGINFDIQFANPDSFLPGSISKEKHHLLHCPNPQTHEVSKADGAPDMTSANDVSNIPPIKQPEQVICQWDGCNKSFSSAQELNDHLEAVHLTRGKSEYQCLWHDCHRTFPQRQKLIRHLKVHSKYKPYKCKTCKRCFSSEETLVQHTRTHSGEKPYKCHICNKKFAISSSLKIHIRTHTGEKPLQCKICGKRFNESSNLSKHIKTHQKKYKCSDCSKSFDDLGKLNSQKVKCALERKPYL
Outline: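 Universal all-10-mer Agilent arrays, double-stranded by primer extension on fresh or once-stripped slides, were probed with about 100-200 nM GST-tagged yeast transcription factors made by PURExpress. Fluorescent anti-GST detected bound protein, and masliner normalised the scans. E-scores from the Universal PBM Analysis Suite were given to each ungapped eight-base word pooled with its reverse complement.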

| Sequence | PBM E-score |
| --- | --- |
| CTATAAAA | 0.143 |
| CCGTCCAG | -0.165 |
| TAACGCAA | 0.203 |
| CCGCGTAG | 0.107 |
| GCTAAGCC | -0.276 |
| GTGCCATA | -0.0982 |
| GATGATGC | -0.174 |
| GAACGTTA | -0.217 |
| ACACAGGC | -0.0714 |
| GGATACTA | -0.0401 |
| AAGAGTGG | -0.158 |
| GATCCCCC | -0.428 |
| GGAACCAA | 0.159 |
| CACGGTAA | 0.128 |
| GCGCATAC | 0.0123 |
| GGTCTAGA | -0.0688 |
| CATTACGG | -0.0514 |
| AATTATTA | 0.108 |
| CTCCCCAA | -0.0836 |
| GTTCCCAA | -0.0453 |
| CCGATATA | -2e-05 |
| CTCCTCAA | -0.141 |

| Sequence | PBM E-score |
| --- | --- |
| CGCTAGCC | -0.373 |
| CCTTTTCG | 0.186 |
| ACGTCTAA | 0.0735 |
| CTTAGGCC | 0.0131 |
| CCGTTCAG | -0.0239 |
| AGTTGCCG | -0.3 |
| ATCTAAAG | 0.128 |
| CGCAACAC | -0.0575 |
| GCGCAACC | 0.259 |
| AGTCTCAT | -0.0192 |
| CTGTATTA | 0.132 |
| ACCGCCCG | 0.033 |
| CACATGTA | -0.0311 |
| CCCAGTTA | -0.055 |
| CGTTGGTA | -0.00272 |
| ATAATATC | -0.00752 |
| CCCAGTGA | 0.00661 |
| GACTTTGA | -0.139 |
| AAGTCGGG | -0.122 |
| CTCGACAC | -0.117 |
| CTAGGGAA | -0.037 |
| CTATTGGA | 0.0435 |

| Sequence | PBM E-score |
| --- | --- |
| CCGTAGGC | -0.309 |
| GACAGCCC | -0.0621 |
| ACATGCAC | 0.0283 |
| CTGATTAC | 0.213 |
| GGATAGTA | 0.0149 |
| GTCACCGA | 0.131 |
| TATTAGCA | 0.0761 |
| GAGATGAC | -0.0731 |
| CGACTCCA | -0.122 |
| GGTCGATA | -0.0635 |
| CGGACATA | 0.0482 |
| ATACGGCC | -0.0305 |
| CCCCATCG | -0.0609 |
| GCCGATCC | -0.287 |
| GTGGTGCA | -0.0414 |
| GCCAAATA | 0.0774 |
| CCATCTGC | -0.0685 |
| AACCAGAC | 0.155 |
| AGTGCAAC | 0.0909 |
| AAACGCAA | -0.0427 |
| GTGCTCGA | -0.214 |
| GTGTGGTA | 0.191 |

| Sequence | PBM E-score |
| --- | --- |
| CGCAATAC | 0.208 |
| GAGCATCC | -0.244 |
| CTACGCAA | -0.113 |
| CCTAGCAG | -0.0321 |
| GTTGGTTA | 0.316 |
| AGTCTTAT | -0.115 |
| AGTTTACG | 0.0423 |
| AGTGATGG | 0.00854 |
| CACCTGGG | -0.0725 |
| AGCCACGA | -0.0658 |
| AACTATGA | -0.00628 |
| GAACGTCC | -0.00269 |
| TAGAAAAA | -0.0129 |
| ATGGTAAC | 0.392 |
| CCATCGAC | -0.00182 |
| AGGATAAC | 0.0559 |
| ATCGATAC | 0.0699 |
| ACTTAGTG | -0.12 |
| AGGCCATA | 0.043 |
| GCCACGTA | -0.179 |
